# Test results: PubChem BioAssay AID504339 (National Center for Advancing Translational Sciences (NCATS), 2011)
# Several values for one entry are separate records, joined by “and”; a condition that tells them apart may be missing. Equal values may be shown once. About 17,000 (4.4%) of roughly 390,000 compounds were called active. The inconclusive results got no clear call from the source; some entries with a clear call stand among them for comparison. The call rests on the fitted dose curve; in most records, active means well fitted inhibition curve with a large enough effect; inconclusive means small, poorly fitted or top-dose-only effect; inactive means no such curve, though single readings can be large or run the other way. Potencies beside an inconclusive call are fits to weak or partial responses and may not hold up.
# Target: Lysine-specific demethylase 4A (Homo sapiens) (UniProt O75164)
# Experiment: qHTS Assay for Inhibitors of JMJD2A-Tudor Domain; further: nearly all actives have a fitted effect of over 50% in size
# Conditions: AlphaScreen JMJD2A-Tudor / H3K4me3 peptide binding; activity change, negative = inhibition: at 114 µM (top of the series)
# On the % scale 0 is the no-effect control and ±100 the full control effect; potency means the concentration at half of the fitted maximal effect; tags describe the fitted curve by direction and shape.
# Sequence of UniProt O75164 (O75164 whole entry, looked up, the tested form may be a part): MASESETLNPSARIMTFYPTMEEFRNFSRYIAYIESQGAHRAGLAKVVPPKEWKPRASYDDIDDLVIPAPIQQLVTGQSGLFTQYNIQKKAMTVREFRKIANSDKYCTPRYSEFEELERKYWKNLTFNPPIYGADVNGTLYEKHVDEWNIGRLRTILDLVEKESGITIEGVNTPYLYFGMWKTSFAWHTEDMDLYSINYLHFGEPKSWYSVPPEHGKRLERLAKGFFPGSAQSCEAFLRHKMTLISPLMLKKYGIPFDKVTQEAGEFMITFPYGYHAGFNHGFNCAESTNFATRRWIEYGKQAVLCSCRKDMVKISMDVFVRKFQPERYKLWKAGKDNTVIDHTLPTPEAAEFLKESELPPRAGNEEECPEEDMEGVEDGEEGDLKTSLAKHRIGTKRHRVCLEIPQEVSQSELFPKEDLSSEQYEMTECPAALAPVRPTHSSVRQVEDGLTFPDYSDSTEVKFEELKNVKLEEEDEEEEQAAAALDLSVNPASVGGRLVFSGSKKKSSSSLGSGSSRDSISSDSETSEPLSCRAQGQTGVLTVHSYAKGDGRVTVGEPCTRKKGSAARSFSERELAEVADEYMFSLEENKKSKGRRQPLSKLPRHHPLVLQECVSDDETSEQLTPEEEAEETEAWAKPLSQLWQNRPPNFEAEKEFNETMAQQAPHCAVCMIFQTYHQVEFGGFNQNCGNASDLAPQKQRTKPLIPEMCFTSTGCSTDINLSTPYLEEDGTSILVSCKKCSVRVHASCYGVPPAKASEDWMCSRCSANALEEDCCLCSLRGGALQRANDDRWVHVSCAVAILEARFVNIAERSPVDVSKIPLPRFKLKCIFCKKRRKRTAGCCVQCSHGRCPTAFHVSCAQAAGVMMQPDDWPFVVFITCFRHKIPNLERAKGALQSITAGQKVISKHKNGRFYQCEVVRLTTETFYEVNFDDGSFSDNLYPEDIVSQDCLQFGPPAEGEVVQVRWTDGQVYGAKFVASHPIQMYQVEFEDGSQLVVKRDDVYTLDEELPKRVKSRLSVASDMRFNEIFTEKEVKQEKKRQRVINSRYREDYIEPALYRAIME
SMILES,Potency,"activity change, negative = inhibition"
O=C(c1coc(=O)c(Br)c1)N1CCOCC1,"inconclusive: 89.1 µM [inhibitor, single point]",–
Cc1c(C(=O)O)[nH]c2ccc([N+](=O)[O-])cc12,active: 79.4 µM,–
COc1ccc(Br)c2oc(S)cc(=O)c12,active: 35.5 µM,–
N#Cc1cccc(NS(=O)(=O)c2ccc3c(c2)CCC(=O)N3)c1,–,inactive: -4.26%
Cc1oc2c(C)c3oc(=O)c(CCC(=O)NCCN4CCOCC4)c(C)c3cc2c1C,–,inactive: -24.5%
COc1ccc(CNC(=O)/C(C)=C\C(=O)O)cc1,"inconclusive: 2.82 µM [inhibitor, single point]",–
S=C(NCc1ccccc1)C(=S)NCc1ccccc1,active: 35.5 µM,–
O=c1c2ccc(Cl)cc2[nH]c(=S)n1CCCN1CCOCC1,"inconclusive: 31.6 µM [inhibitor, single point]",–
C=CCN(CC=C)CCOc1ccc2ccccc2c1,"inconclusive: 39.8 µM [inhibitor, single point]",–
CC(=O)c1cccc(NC(=O)N2CC(C)OC(C)C2)c1 (stereo not given),–,inactive: 6.74%
O=C(Cn1nnc(-c2ccccc2)n1)OCc1csc(-c2ccccc2)n1,–,inactive: -23.2%
CCOc1ccccc1N1CC(C(=O)Nc2cccc(S(=O)(=O)N3CCCCC3)c2)CC1=O (stereo not given),"inconclusive: 12.6 µM [inhibitor, full curve, poor fit]",–
Cc1ccc2cc(CN(Cc3ccco3)C(=O)NC3CCCCC3)c(=O)[nH]c2c1C,"inconclusive: 50.1 µM [inhibitor, partial curve]",–
C=C(c1cccc2ccccc12)P(=O)(O)O,"inconclusive: 31.6 µM [inhibitor, full curve, poor fit]",–
O=C(CSc1nnc2scc(-c3ccccc3)n12)NCc1ccc2c(c1)OCO2,"inconclusive: 100 µM [inhibitor, single point]",–
COc1cc2[nH]c(=S)n(CCN3CCCCC3C)c(=O)c2cc1OC (stereo not given),"inconclusive: 31.6 µM [inhibitor, single point]",–
COc1ccc(C2CC(=O)Nc3cc(OC)c(OC)cc32)cc1Br (stereo not given),–,inactive: -22.3%
Cc1ccc(CN(C)c2nc(-c3cccnc3)nc3ccccc23)o1,–,inactive: -32.4%
CC(C)OCCCNC(=O)CN1C(=O)/C(=C/c2ccccc2F)Oc2ccccc21,"inconclusive: 56.2 µM [inhibitor, partial curve]",–
OCCn1c(-c2ccccc2)csc1=Nc1ccccc1,active: 56.2 µM,–
CC1CCN(S(=O)(=O)c2ccc(C(=O)Nc3sc4c(c3C(N)=O)CC(C)(C)NC4(C)C)cc2)CC1,"inconclusive: 56.2 µM [inhibitor, partial curve]",–
C/C(N)=C(/C#N)C(=O)COc1ncnc2ccc(Br)cc12,–,inactive: -7.87% [at 57.1 µM]
COc1ccc2ncnc(NCC3CCCO3)c2c1-c1ccc2c(c1)OCO2 (stereo not given),"inconclusive: 89.1 µM [inhibitor, single point]",–
CCC(CC)NC(=O)c1cccc(Oc2ccccc2)c1,–,inactive: 5.69%
Cc1nc2ccccn2c1C(=O)NNC(=O)Nc1cccc(C(F)(F)F)c1,–,inactive: -6.38%

SMILES,Potency,"activity change, negative = inhibition"
COCCOC1CCN(C(=O)C2CCC(=O)N(CCc3ccccc3)C2)CC1 (stereo not given),–,inactive: -8.33%
CCc1ccccc1NC(=O)CSc1nc(-c2ccccc2OC)nc2c1Cc1c(CO)cnc(C)c1O2,–,inactive: -11.7%
COc1ccccc1NS(=O)(=O)c1ccc(C)c(C(=O)N2CCN(c3ccc(O)cc3)CC2)c1,active: 28.2 µM,–
CCC1=Nc2cc(C(=O)NCCCN3CCOCC3)ccc2Sc2ccc(Br)cc21,"inconclusive: 56.2 µM [inhibitor, partial curve, poor fit]",–
CCOC(=O)N1CCC(NC(=O)C2CCN(C(=O)N3CCOc4ccccc43)CC2)CC1,active: 100 µM,–
Cc1ccc(C2=N/C(=C/c3cccs3)C(=O)N2Nc2ccccc2)cc1,"inconclusive: 17.8 µM [inhibitor, full curve]",–
COC(=O)c1ccc(C)c(NC(=O)CCc2ccc(OC)cc2)c1,–,inactive: -17.9%
Cc1ccc(-c2nnc(SCc3nc4ccccc4[nH]3)n2Cc2ccco2)cc1,active: 79.4 µM,–
S=c1nc[nH]c2nc[nH]c12,active: 6.31 µM and active: 3.98 µM,–
S=c1[nH]nc(C2CCCCC2)n1Cc1ccccc1,active: 35.5 µM,–
Cn1c(NCc2cc(Br)ccc2O)nc2ccccc21,–,inactive: -9.29%
O=C(Nc1cc(N2CCCCC2)ncn1)c1ccc(F)cc1,–,inactive: -19.2%
O=C(COc1ccccc1)NN1C(=O)CSC1=S,–,inactive: 4.35%
COc1ccc2[nH]c3c(c2c1)CCN1C(=O)C(CC(=O)NCCc2ccccn2)C[C@H](C(=O)N2CCCCC2)[C@@]31CCc1ccccc1 (stereo not given in full),"inconclusive: 56.2 µM [inhibitor, partial curve]",–
COC(=O)c1sc2cccc(F)c2c1S(=O)(=O)N1CCN(c2ccc(F)cc2)CC1,–,inactive: -30%
CCOc1cc(/C=N/Nc2nc(=O)[nH]nc2C)ccc1O,"inconclusive: 31.6 µM [inhibitor, single point]",–
CCOC(=O)C1(C)/C(=N/Nc2ccccc2)C(=O)C(=O)N1c1ccccc1 (stereo not given),active: 31.6 µM,–
COc1cccc(-c2ccc(NC(=O)C3CCCN(Cc4cnc(N(C)C)s4)C3)cc2)c1 (stereo not given),"inconclusive: 39.8 µM [inhibitor, partial curve]",–
O=C(Cc1cccs1)NC(Cc1c[nH]c2ccccc12)C(=O)O (stereo not given),active: 22.4 µM,–
Cc1cccc(C)c1NC(=O)C1CCCN1S(=O)(=O)c1ccc(-c2ccc(=O)[nH]n2)s1 (stereo not given),"inconclusive: 15.8 µM [inhibitor, full curve]",–
CCOc1ccc(NS(=O)(=O)c2csc(C(N)=O)c2)cc1,–,inactive: -6.97%
COc1ccc(C2=NN(CC(=O)NCCCN(C)c3ccccc3)C(=O)CC2)cc1,"inconclusive: 79.4 µM [inhibitor, partial curve]",–
Cc1c(CNC(C)CCc2ccccc2)c(C(=O)O)c(C)n1Cc1ccc(F)cc1Cl (stereo not given),–,inactive: -22.5%
COCc1c(C(=O)OC)nnn1-c1ccc(C(F)(F)F)cc1[N+](=O)[O-],"inconclusive: 15.8 µM [inhibitor, full curve]",–
CCOc1ccc(NC(=S)N(CCc2c(C)[nH]c3ccc(C)cc23)Cc2ccco2)cc1,"inconclusive: 25.1 µM [inhibitor, full curve]",–
